# Where two headings read alike, the source gives them in different places.
# System: C. glabrata CgPDR1 wild-type and CgPDR1^L280F strains
# Experimental: iKIX1—ketoconazole drug interactions were assessed by a broth microdilution checkerboard assay as described in EUCAST document 7.1 (see, e.g., EUCAST definitive document EDef 7.1: method for the determination of broth dilution MICs of antifungal agents for fermentative yeasts. Clin Microbiol Infect. 2008; 14(4):398-405). […] Combination indices were calculated as follows: CI=(CIKIX1/ICIKIX1)+(CAZ/ICAZ); where ICIKIX1 and ICAZ are concentrations of iKIX1 alone or ketoconazole alone, respectively, that result in greater than 50% inhibition of growth as compared to untreated control and iKIX1 and CAZ are the concentrations of iKIX1 and ketoconazole in combination that provide the same effect (greater than 50% inhibition of growth as compared to untreated control). A CI of less than 1 is taken to indicate synergy.
smiles,measurement,setting,value
"N#CCC(=O)NNC(=S)Nc1ccc(Cl)c(Cl)c1 [iKIX1, 2-(2-Cyanoacetyl)-N-(3,4-dichlorophenyl)hydrazinecarbothioamide]",combination effect of ketoconazole and iKIX1 on growth,CgPDR1^L280F mutant,synergistic growth inhibition
same,combination effect of ketoconazole and iKIX1 on growth,wild-type CgPDR1 strain,additive
